Out of some 340,000 compounds screened, about 6,900 (2%) were called active. Cut-off read from the data, not from the text of the source: active = inhibition above about 30%; inactive = below that, where a call was filed. The entries are a selection whose mix differs from that of the whole data set. Where no call is shown, the source filed none.
Target: D(2) dopamine receptor (Homo sapiens) (UniProt P14416)
Test: HTS Assay for Allosteric Antagonists of the Human D2 Dopamine Receptor: Primary Screen for Antagonists; note: 0% is about no effect
Settings: HEK293 TREx D2 cells, calcium flux, dopamine EC80; at 10 µM; stronger effect = higher value
Procedure, shortened: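 Calcium flux kinetic readout in an inducible HEK293 TREx D2 line plated overnight at 30 C. After 180 s compound exposure, an EC80 dopamine challenge follows with another 180 s kinetic read to detect antagonism.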

Chain of UniProt P14416 (P14416 whole entry, looked up): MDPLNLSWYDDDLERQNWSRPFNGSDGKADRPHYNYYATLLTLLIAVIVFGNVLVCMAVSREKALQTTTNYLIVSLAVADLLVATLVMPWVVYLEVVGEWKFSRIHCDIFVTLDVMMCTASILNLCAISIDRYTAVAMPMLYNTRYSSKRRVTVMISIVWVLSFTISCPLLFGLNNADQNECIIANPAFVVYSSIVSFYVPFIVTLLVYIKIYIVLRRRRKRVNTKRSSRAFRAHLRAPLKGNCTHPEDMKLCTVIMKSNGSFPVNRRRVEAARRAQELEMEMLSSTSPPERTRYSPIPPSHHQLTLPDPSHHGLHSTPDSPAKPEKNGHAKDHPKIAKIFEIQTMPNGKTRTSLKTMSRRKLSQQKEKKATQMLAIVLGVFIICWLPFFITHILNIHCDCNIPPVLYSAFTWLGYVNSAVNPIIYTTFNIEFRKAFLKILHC

Compound	inhibition
CCOC(=O)C1CCCN(C(=O)c2ccc(C)c(NC(=O)c3nsc4ccccc34)c2)C1 (stereo unspecified)	-7.9%
CC(=O)Nc1ccc(NC(=O)c2ccc3c(c2)CCN3S(=O)(=O)c2ccc(Cl)cc2)cc1	6.46%
COc1ccc(CCNc2oc(/C=C/c3ccc(OC)c(OC)c3)nc2C#N)cc1	14.8%
CC(=O)Nc1ccc(C)cc1-c1nc2ccccc2n(Cc2cccc(Br)c2)c1=O	24.2%
NS(=O)(=O)c1ccc(NC(=O)/C=C/c2cccc(Cl)c2)cc1	active: 35.2%
COc1ccc(OC)c(-n2nnc(-c3nc(-c4ccc5c(c4)OCO5)no3)c2C)c1	2.64%
Clc1ccc(OCCCN2CCCCC2)c(Br)c1	active: 38%
O=C(NC1CC(=O)N(c2cccc(F)c2)C1)c1ccc(S(=O)(=O)N2CCCCC2)cc1 (stereo unspecified)	11.2%
CCN(CC)c1ccc2cc(-c3nnc(-c4ccccc4)o3)c(=O)oc2c1	active: 37.9%
Cc1noc(-c2ccc(N(C)Cc3ccccc3)c([N+](=O)[O-])c2)n1	-4.01%
Cc1ccc(OCC(=O)Nc2nnc(SCc3cc(=O)n4cc(C)ccc4n3)s2)cc1	-2.08%
COC(=O)c1ccccc1NC(=O)CCn1c(=O)c2cccn2c2cccnc21	4.24%
COc1ccc(C(=O)Nc2cc(-c3nc4ncccc4o3)ccc2C)cc1Br	-7.51%
O=C(c1cccs1)N(Cc1ccco1)C1CCS(=O)(=O)C1 (stereo unspecified)	active: 40.8%
CCC(=O)N1c2ccccc2CC1C(=O)NCCc1ccccc1OC (stereo unspecified)	5.55%
Cc1ccc(C)c(-c2ccc(=O)n(C(C)C(=O)Nc3ccccc3C(F)(F)F)n2)c1 (stereo unspecified)	-9.32%
CCCCNC(=O)CSc1nc(-c2ccc(OC)cc2)cc(C(F)(F)F)n1	-1.72%
CCc1ccc(-n2nc(C)c3c(C(=O)Nc4ccc(Cl)cc4)cc(C)nc32)cc1	6.97%
Cc1ccc(CN(C(=O)COc2cccc(Cl)c2)c2ccccn2)o1	0.944%
CCOc1ccc(NC(c2ccc(Cl)cc2)c2nnc(-c3cccc(F)c3)o2)cc1 (stereo unspecified)	-5.88%
COc1cc(O)ccc1-c1nc2ccc(Br)cn2c1Nc1ccccc1C	11.4%
O=C(Nc1ccccc1F)C(c1ccccc1)N1Cc2ccccc2C1=O (stereo unspecified)	4.03%
CCOc1ccccc1NC(=O)CSc1ccc([N+](=O)[O-])cc1	active: 40.9%
O=C(CSc1nccn1Cc1ccc(F)cc1)NC1CCCC1	5.48%

Compound	inhibition
COc1ccc(NC(=O)C2(S(=O)(=O)c3ccc(C)cc3)CC2)c(OC)c1	-1.75%
CCCN(CCC)C(=O)Cn1c(=O)n(-c2ccc(CC)cc2)c(=O)c2c3c(sc21)CCC3	13.5%
CCOC(=O)C1CCN(C(=O)c2ccc3c(=O)n4nc(Nc5ccccc5)sc4nc3c2)CC1	-17.9%
Cc1ccn2c(Nc3ccc4c(c3)OCO4)c(-c3ccc(C)o3)nc2c1	-16.2%
Cc1ccc(C(=O)NCCSc2c[nH]c3ccccc23)cc1C	-17.6%
Cc1cccc(NC(=O)c2ccc(F)c(S(=O)(=O)NCc3ccc4c(c3)OCO4)c2)c1	13.5%
CCOc1ccc(N(CC)C(=O)c2cc3c(s2)-c2ccc(Cl)cc2SC3)cc1	-10.9%
OCCN1CCN(C(=S)c2ccc(Br)cc2)CC1	active: 54.7%
Cc1cc(C)cc(NC(=O)CSc2oc(-c3cccs3)nc2S(=O)(=O)c2ccc(Br)cc2)c1	3.04%
COC(=O)c1sc2cccc(F)c2c1S(=O)(=O)NC(C)c1ccccc1 (stereo unspecified)	8.5%
CCc1ccc(NCc2cc3ccc(OC)cc3n(CC(=O)Nc3ccccc3OC)c2=O)cc1	8.66%
Cc1cccn2c(=O)c3cc(C(=O)NC(C)(C)C)n(C)c3nc12	-5.32%
CCOC(=O)C1CCN(c2nc3c(S(=O)(=O)c4ccc(CC)cc4)nnn3c3ccc(Cl)cc23)CC1	13.6%
CC(=O)c1ccc(NC(=O)C2CCCN(S(=O)(=O)c3ccc(Br)s3)C2)cc1 (stereo unspecified)	6.21%
CCOc1ccc(NC(=O)c2sc3nc4n(c(=O)c3c2C)CCCC4)cc1	-9.87%
CCOC(=O)c1ccc(NC(=O)C2CCN(S(=O)(=O)Cc3ccccc3)CC2)cc1	-12.4%
Cc1cc(Cl)ccc1NC(=O)CS(=O)(=O)c1cccc2nsnc12	17.6%
Cc1ccc2c(c1)-c1c(cnn1CC(=O)N1CCN(c3cc(Cl)ccc3C)CC1)CO2	1.03%
CC(C)C(NS(=O)(=O)c1cccc2cccnc12)C(=O)Nc1ccc(OC(F)(F)F)cc1 (stereo unspecified)	3.53%
O=C(c1ccccc1)c1ccc2nc(Nc3cc(Cl)ccc3O)c3nncn3c2c1	6.83%
COc1ccc(F)cc1C(=O)C1CCCN(Cc2cnc(N3CCCC3)s2)C1 (stereo unspecified)	active: 66%
CC1CN(CC(=O)c2c(N)n(Cc3ccccc3)c(=O)n(C)c2=O)CC(C)O1 (stereo unspecified)	active: 35.8%
CCN1CCC(N(Cc2ccc(F)cc2)C(=O)Nc2cc(Cl)ccc2C(=O)OC)CC1	-8.73%
CC(=O)c1ccc(N2CCN(C(=O)c3ccc(Cn4c(=O)[nH]c5ccccc5c4=O)cc3)CC2)cc1	-7.72%

Compound	inhibition
CC(C)c1ccc(NC(=O)C2(C)Cc3ccccc3C(=O)O2)cc1 (stereo unspecified)	-2.37%
CCCOc1ccc(C2c3c(oc4ccccc4c3=O)C(=O)N2c2nc(C)c(C(=O)OCC)s2)cc1 (stereo unspecified)	3.54%
COc1ccc(S(=O)(=O)NCc2ccc(C(=O)NCc3ccccc3)cc2)cc1	-2.45%
Cc1cc(C)c(NC(=O)CCC(=O)N2Cc3ccccc3Oc3ncccc32)c(C)c1	5.99%
COC(=O)c1ccccc1NC(=O)Cn1c(=O)n(CCCC(=O)NCCc2ccc(OC)c(OC)c2)c(=O)c2ccccc21	14.3%
COc1ccc(Nc2cc(C)c3cc(NC(=O)c4cc(OC)cc(OC)c4)ccc3n2)cc1	-15.6%
CCOC(=O)C1CCN(CCC(=O)Nc2ccc(OC)cc2)CC1	-2.37%
Cc1ccc(NC(=O)c2ccc(CSc3nccc(C)n3)cc2)cc1	active: 31.1%
CCCN1C(=O)C2(c3ccccc31)c1c(oc3ccc(C)cc3c1=O)C(=O)N2CCOC (stereo unspecified)	2.62%
Cc1ccccc1OCCN1CCC(Cc2ccccc2)CC1	active: 46.3%
Cc1nc(N2CCOCC2)c2c(C(=O)N3CCN(c4cccc(C)c4C)CC3)c(C)oc2n1	17.3%
COc1cc(C(=O)N2CC(=O)Nc3ccc(C)cc3C2c2ccc(F)cc2)cc(OC)c1OC (stereo unspecified)	-3.17%
CCc1ccc(NC(=O)c2cc3c([nH]c2=O)CC(C)(C)CC3=O)cc1	-3.11%
CC(=O)c1cccc(NC(=O)c2cc3nc(-c4ccc(Br)cc4)cc(C(F)(F)F)n3n2)c1	10.5%
COc1ccc(NC(=O)CN2CCN(c3ccccc3)CC2)cc1	active: 50%
COc1ccc(CNC(=O)c2ccc(-c3nc(CSc4ccccc4)c(C)o3)cc2)c(OC)c1	5.62%
N#Cc1c[nH]n2c(NC3CCCCC3)c(-c3cccc(Cl)c3)nc12	13.8%
CCOc1ccc2oc(=O)cc(CN3CCN(c4ccccc4)CC3)c2c1	-2.07%
Cc1ccc(-c2nc(C)c(CCNC(=O)C(=O)Nc3ccc4c(c3)OCO4)s2)cc1	-14.5%
COc1ccc(CCN2C(=O)N(c3ccccc3)C(=O)C2CC(=O)Nc2ccccc2)cc1 (stereo unspecified)	-5.54%
O=c1c2cnn(-c3ccc(F)cc3)c2ncn1Cc1ccc(F)cc1	-8.17%
Cc1cccc(NC(=O)Cc2ccc(-n3c(C)nc4cccnc43)cc2)c1C	7.71%
COc1ccc(Cl)cc1NC(=O)Cn1cc2c(n1)CCC(C)C2 (stereo unspecified)	-0.708%
Cc1cc(-c2ccc(S(=O)(=O)Nc3ccc(Br)c(C)c3)s2)on1	3.79%

Compound	inhibition
COc1ccc(CNC(=O)C2Cc3cc(S(=O)(=O)N4CCCCCC4)ccc3N2C(C)=O)cc1 (stereo unspecified)	12.5%
COc1ccc(Nc2cc(C(=O)NCc3ccccc3)c3ccccc3n2)c(OC)c1	2.41%
Cc1oc2ccc(O)c(CN3CCCC3)c2c1C(=O)Nc1cccc(Cl)c1C	-8.34%
Cc1cccc(NC(=O)CSc2nc3c(oc4ccccc43)c(=O)n2-c2ccc(F)cc2)c1	-0.567%
COc1ccc2c(CNCCc3ccccc3)c(C(=O)O)n(Cc3cccc(F)c3)c2c1	14.3%
COc1ccc(-c2noc(-c3cccc(OC)c3OC)n2)cc1	7.28%
O=S(=O)(c1ccc2nc(N3CCN(c4ccccc4)CC3)ccc2c1)N1CCCCC1	16.6%
Cc1ccc(NC(=O)CC(C)S(=O)(=O)c2ccc3c(c2)NC(=O)CO3)cc1C (stereo unspecified)	5.7%
CCOc1ccc(-c2cn3c(n2)sc2cc(C(=O)NC4CCCc5ccccc54)ccc23)cc1 (stereo unspecified)	-3.75%
CSc1ncc(C(=O)Nc2ccc(C(C)=O)cc2)c(-c2ccccc2)n1	4.03%
COc1ccc(NC(=O)c2cn3c4c(ccc(Cl)c4c2=O)OC(C)C3)cc1OC (stereo unspecified)	-0.191%
CCOc1ccc2nc(NC(=O)c3cc(=O)c4cc(C)cc(C)c4o3)sc2c1	-7.02%
COc1ccc(N(Cc2cccs2)C(=O)COc2cc(C)c(Cl)c(C)c2)cc1	13.4%
CCOC(=O)c1ccc(NC(=O)CCc2c(C)nc3c(-c4ccc(F)cc4)c(C)nn3c2C)cc1	19.6%
Cc1ccc(-c2onc(C)c2C)cc1S(=O)(=O)Nc1ccc(Cl)cn1	6.35%
COc1ccc(NC(=O)C2Cc3ccccc3N2C(=O)c2ccccc2)cc1OC (stereo unspecified)	-3.51%
Cc1ccccc1C(=O)Nc1ccc(C(=O)OCc2cc(=O)n3nc(C(C)C)sc3n2)cc1	-9.5%
CCOc1ccc(NC(=O)N(C(C)C)C2CCN(C(C)=O)CC2)cc1	25.1%
COc1ccc(C(=O)Oc2cc(-c3ccc4c(c3)OCO4)cc(=O)c3c(C)oc(C)c23)cc1	-9.21%
O=C(CSc1ncc(CO)n1Cc1ccc(Cl)cc1)NCc1ccc(F)cc1	-6.5%
COc1ccc(CNC(=O)c2cc3cccc4c3n2CC(C)S4)c(OC)c1 (stereo unspecified)	-14.6%
Cc1cccc(NC(=O)CSc2nc(=O)n(Cc3ccccn3)c3c2CCC3)c1C	1.43%
COc1ccc(S(=O)(=O)N2CCN(CC(=O)Nc3ccc(Cl)c(C(F)(F)F)c3)CC2)cc1	13.4%
Cc1ccc(Cl)cc1NC(=O)CSc1nc2c(c(=O)[nH]1)CN(Cc1ccccc1)CC2	15.4%

Source: PubChem BioAssay AID485344 (National Center for Advancing Translational Sciences (NCATS), 2010)
